From PubChem BioAssay AID624417 (National Center for Advancing Translational Sciences (NCATS), 2012)
In all, about 410,000 compounds went through this assay and about 6,400 (1.6%) were called active. Inconclusive means that the source gave no clear call. Such entries were picked first, then a sample of the others. Calls follow the shape of the dose curve; as a rule, active = well fitted inhibition curve with a large enough effect; inconclusive = small, poorly fitted or top-dose-only effect; inactive = no such curve, though single readings can be large or run the other way. Potencies of inconclusive entries are left out as doubtful fits.
% is scaled to controls: 0 for no effect and ±100 for the full control effect; potency is read from the fitted curve at half-maximal effect; tags tell the direction and shape of the fitted curve.
Also: nearly all actives have a fitted effect of over 55% in size.

These compounds were tested against Glucagon-like peptide 1 receptor (Homo sapiens) (UniProt P43220) (assay: qHTS of GLP-1 Receptor Inverse Agonists (Inhibition Mode)). Details: HEK293 GLP-1R CRE-luciferase, luminescence, 24 h, GLP-1R form is constitutively active; activity change, negative = inhibition: at 38.3 µM (top of the series) unless noted.
Chain of UniProt P43220 (P43220 whole entry, looked up): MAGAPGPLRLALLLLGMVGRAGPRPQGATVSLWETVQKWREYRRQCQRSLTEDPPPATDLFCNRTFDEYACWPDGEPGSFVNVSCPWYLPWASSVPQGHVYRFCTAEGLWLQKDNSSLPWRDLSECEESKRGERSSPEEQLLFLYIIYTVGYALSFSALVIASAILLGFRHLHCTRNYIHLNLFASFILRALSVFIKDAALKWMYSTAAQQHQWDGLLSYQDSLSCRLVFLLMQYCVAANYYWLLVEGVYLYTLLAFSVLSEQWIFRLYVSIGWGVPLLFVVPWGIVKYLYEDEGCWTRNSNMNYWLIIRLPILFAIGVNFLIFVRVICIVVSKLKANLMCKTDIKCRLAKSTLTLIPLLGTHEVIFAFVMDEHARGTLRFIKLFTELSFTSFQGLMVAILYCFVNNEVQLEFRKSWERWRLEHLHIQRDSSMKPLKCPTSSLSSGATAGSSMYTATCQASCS
Summary of the method: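 Stable HEK293 clone (constitutively active GLP-1R + cAMP-response luciferase); 200 cells/uL plated, 12 h pre-culture, compound 24 hr, 37 deg C/5% CO2; detection reagent 12 min RT; luminescence.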
`CC1C/C(=N\NC(=O)CCc2ccc(S(=O)(=O)N3CCOCC3)cc2)CC(C)(C)C1` (configuration not stated) was tested, and the “activity change, negative = inhibition” value was inactive: 9.8%. For `CCCCCc1ccc(-c2ccc(OC)cc2)nc1`, the “activity change, negative = inhibition” value was inactive: 0.671%. For `CCCn1c(=O)sc2cc(NC(=O)c3ccccc3Cl)ccc21`, the Potency was inconclusive [inhibitor, single point]. With `COC(=O)[C@H]1[C@H]2C[C@@H]3c4[nH]c5cc(OC)ccc5c4CCN3C[C@H]2C[C@@H](OC(=O)c2ccc(N)cc2)[C@@H]1OC` the Potency was inconclusive [inhibitor, single point]. With `COc1cccc(C(=O)N2N=C(c3ccccc3)CC2(O)C(F)(F)F)c1` (configuration not stated) the Potency was inconclusive [inhibitor, single point]. In the case of `COc1ccccc1CSc1ncc(-c2ccc([N+](=O)[O-])cc2)[nH]1`, the Potency is reported as inconclusive [inhibitor, single point]. `CC1CCc2c(sc(NC(=O)CN3CCN(C(=O)c4ccco4)CC3)c2C#N)C1` (configuration not stated) was tested, and the Potency was inconclusive [inhibitor, partial curve]. With `COC(=O)c1sc(N)c(C(=O)OC)c1COC(=O)c1c(C)noc1C` the Potency was inconclusive [inhibitor, full curve, poor fit]. For `CC1CCN(S(=O)(=O)c2ccc(NC(=O)Cc3ccc(S(=O)(=O)N4CCOCC4)s3)cc2)CC1`, the Potency was inconclusive [inhibitor, partial curve, poor fit]. With `O=[N+]([O-])c1ccc(O)c(C=Nc2cccc3ccccc23)c1` the “activity change, negative = inhibition” value was inactive: 15.7%. With `CC/C(=N/Nc1ccccc1)c1cnnc(-c2ccccc2)n1` the Potency was inconclusive [inhibitor, full curve, poor fit]. For `CCN(CC)C(=O)c1c(NC(=O)c2ccccc2F)sc2c1CCC(C(C)(C)C)C2` (configuration not stated), the Potency was inconclusive [inhibitor, partial curve, poor fit]. `COc1cccc(NC(=O)c2oc3ccc(S(=O)(=O)N(C)C4CCCCC4)cc3c2C)c1` was tested, and the Potency was inconclusive [inhibitor, partial curve, poor fit]. With `CCSc1ccccc1C(=O)N1CCN(c2nc3ccccc3s2)CC1` the Potency was inconclusive [inhibitor, partial curve]. In the case of `CC(C)(C)OC(=O)N(CCc1ccccc1)Cc1cccc(OCc2cccc(NC(=O)C3CCC3)c2)c1`, the Potency is reported as inconclusive [inhibitor, partial curve, poor fit]. For `COc1ccccc1C(=O)Nc1cccc(OCc2cc(=O)n3ccccc3n2)c1`, the “activity change, negative = inhibition” value was inactive: 3.11%. `O=C1NC2(CCC3(CC2)OCCO3)NN1c1ccccc1` was tested, and the Potency was inconclusive [inhibitor, full curve, poor fit].
